Assay [1] has as its target T1, human Y5 receptor (Homo sapiens, UniProt Q15761).
T1 sequence (Q15761 1-445): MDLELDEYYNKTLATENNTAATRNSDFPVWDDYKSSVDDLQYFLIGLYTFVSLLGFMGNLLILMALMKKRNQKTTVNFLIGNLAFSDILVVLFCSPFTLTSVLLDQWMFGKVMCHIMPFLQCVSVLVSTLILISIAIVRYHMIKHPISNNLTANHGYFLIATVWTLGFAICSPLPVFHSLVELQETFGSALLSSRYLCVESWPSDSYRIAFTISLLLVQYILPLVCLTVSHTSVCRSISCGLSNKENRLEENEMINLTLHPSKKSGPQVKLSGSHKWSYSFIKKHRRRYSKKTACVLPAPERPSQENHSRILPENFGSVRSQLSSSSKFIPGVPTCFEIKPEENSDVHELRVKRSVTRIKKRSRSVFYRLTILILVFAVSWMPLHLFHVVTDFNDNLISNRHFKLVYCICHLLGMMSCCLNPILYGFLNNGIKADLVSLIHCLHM
Conditions: block of NPY-induced inhibition of cAMP accumulation, forskolin-stimulated LM(tk-) cells. A general note: Changes in cAMP serve as a functional read-out for many G protein-coupled receptors.

Assay [2] has as its target T1, human Y5 receptor. In words: Binding affinity of compounds vs. 125I-PYY at the cloned human Y5 receptor. The conditions noted are these: read-out: Binding Affinity (Ki (nM) vs. ^125I-PYY) Human Receptor Y5; Table 14.
For assay [3], the target named is T1, human Y5 receptor. The format is binding. Conditions: Gpp(NH)p 1 nM to 100 μM, 0.08 nM 125I-PYY. On the procedure: FIG. 19 Guanine Nucleotide Modulation of Y5 Peptide Binding. […] Radioligand binding is reported as cpm, efficiency=0.8. For the human Y5 in LM(tk-) (0.007 mg membrane protein/sample), the maximum Δcpm=−2343. Given a specific activity of 2200 Ci/mmol, the change in radioligand binding is therefore calculated to be −0.6 fmol/0.007 mg protein=−85 fmol/mg membrane protein.
For a given G protein-coupled receptor, a portion of the receptor population can typically be characterized in the high affinity ligand binding site using discriminating agonists. The binding of GTP or a non-hydrolyzable analog to the G protein causes a conformational change in the receptor which favors a low affinity ligand binding state.

As usually defined, the Ki is a measure of affinity in units of concentration, obtained from inhibition or displacement. `Cl.O=S(=O)(NC[C@H]1CC[C@H](CNCC2CCc3ccccc3C2)CC1)c1cccc2ccccc12` (some centres unmarked) [Compound 19]: in assay [1], the Kb came to 23 nM. Also, the Ki in assay [2] is 11 nM. For `Cl.O=[N+]([O-])c1ccccc1S(=O)(=O)NC[C@H]1CC[C@H](CNCC2CCc3ccccc3C2)CC1` (some centres unmarked) [Compound 20] the same measures were 26 nM and 8.3 nM. On the same counts, the results for `Cl.O=S(=O)(NCC1CCC(CNCc2ccc3ccccc3c2)CC1)c1ccccc1C(F)(F)F` (centres unmarked) [Compound 21] are 16 nM and 9.8 nM. `Cl.Cl.Nc1ccccc1S(=O)(=O)NCC1CCC(CNCC2CCc3ccccc3C2)CC1` (centres unmarked) [Compound 22] came in with a Kb in assay [1] of 3 nM. Further, the Ki in assay [2] amounted to 11 nM.

The compound `Cl.O=S(=O)(NCC1CCC(CNCc2cccc3ccccc23)CC1)c1ccccc1C(F)(F)F` (centres unmarked) [Compound 23] returned a Kb in assay [1] of 38 nM. The inhibitory constant (Ki) in assay [2] amounted to 26 nM. For `Nc1nc2c(ncn2[C@@H]2O[C@H](COP(=O)(O)OP(=O)(O)NP(=O)(O)O)[C@@H](O)[C@H]2O)c(=O)[nH]1` [Gpp(NH)p], the “change in radioligand (125I-PYY) binding” value in assay [3] is −85 fmol/mg membrane protein.

Source of the values: patent US6818445B2 (Synaptic Pharmaceutical Corporation, priority 1994, dated 2004).
